According to PubChem BioAssay AID493208 (National Center for Advancing Translational Sciences (NCATS), 2011):
About 340 (0.77%) of roughly 44,000 compounds were called active. Inconclusive results (about 5%) are left out. The call rests on the fitted dose curve; in most records, active means well fitted inhibition curve with a large enough effect; inconclusive means small, poorly fitted or top-dose-only effect; inactive means flat fitted curve, though single readings scatter. This is one part of the list.

assay: Acumen qHTS Assay for Inhibitors of the mTORC1 Signaling Pathway in MEF (Tsc2-/-, p53-/-) Cells: Sytravon; conditions: phospho-rpS6 immunofluorescence/PI, 24 h; series mostly up to 38.3 µM; activity change, negative = inhibition: at the top concentration;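 further: plate controls were DMSO for no effect and rapamycin for full effect; nearly all actives have a fitted effect of over 50% in size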
Procedure, shortened: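 Immunofluorescence of rpS6 phosphorylation in Tsc2-/-, p53-/- MEFs after 24 h compound exposure, normalized to propidium iodide signal. Activity is expressed as % positive cells, thresholded with 7.5 nM rapamycin.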

Row | Compound | activity change, negative = inhibition
1 | CCc1ccc(OCC(=O)N(Cc2ccc(Cl)cc2)C2CCS(=O)(=O)C2)cc1 (centres undefined) | inactive: -4.24%
2 | Cc1noc(C)c1S(=O)(=O)N1CCC(C(=O)N2CCN(c3ccccc3)CC2)CC1 | inactive: 2.75%
3 | COc1ccccc1NC(=O)Cn1nnc(C(=O)NCc2ccc3c(c2)OCO3)c1N | inactive: -16.2%
4 | Cn1c(NCCO)nc2c1c(=O)n(Cc1ccccc1Cl)c(=O)n2C | inactive: 2.76%
5 | CCC(C)NC(=O)Cn1c(=O)cc(-c2ccccc2)c2c(C)nn(C)c21 (centres undefined) | inactive: 0%
6 | COc1ccccc1C(=O)Nc1cc2c(cc1N1CCOCC1)n(C)c(=O)n2C | inactive: 1.09%
7 | COc1cccc(Oc2nc3c(c(=O)n(Cc4ccccc4F)c(=O)n3C)n2C)c1 | inactive: 3.61%
8 | COc1cc2[nH]c(=O)n(CCCCCC(=O)N3CCN(c4cccc(C(F)(F)F)c4)CC3)c(=O)c2cc1OC | inactive: -7.96%
9 | Cc1cccc(NS(=O)(=O)c2ccc3oc(=O)c4ncn(C)c4c3c2)c1C | inactive: -0.515%
10 | COc1cccc(N2CCN(C(=O)c3c(C)oc4ncnc(N5CCOCC5)c34)CC2)c1 | inactive: 4.01%
11 | Cc1c(C(=O)N(C)C)sc2c1c(=O)n(-c1ccc(Cl)c(Cl)c1)c(=O)n2CC(=O)Nc1cccc(C(F)(F)F)c1 | inactive: -2.39%
12 | CC(C)c1ccc(NC(=O)CN(C)S(=O)(=O)c2ccc3c(c2)c(=O)n(C)c(=O)n3C)cc1 | inactive: -1.72%
13 | CCn1c(=O)n(CC)c2cc(N3CCCCC3)c(NC(=O)Nc3ccccc3Cl)cc21 | inactive: -13.3%
14 | CCOC(=O)Cc1ccc(NC(=O)NCc2ccc3c(c2)CCN3C(=O)CC)cc1 | inactive: -7.16%
15 | O=C(CCS(=O)(=O)c1cc(Br)cc2c1N(C(=O)C1CC1)CC2)Nc1ccc(Br)cc1F | inactive: -20.5%
16 | CCc1ccccc1N(C)C(=O)Cn1cnc2sc(C)c(S(=O)(=O)N3CCN(c4ncccn4)CC3)c2c1=O | inactive: 1.74%
17 | COc1ccc(NC(=O)Cn2c(=O)oc3cc(S(=O)(=O)N4CCC(C)CC4)ccc32)c(OC)c1 | inactive: -4.39%
18 | Cc1ccc(NS(=O)(=O)c2cc(Br)cc3c2N(C(=O)C2CC2)CC3)cc1C | inactive: -12.5%
19 | CCCS(=O)(=O)c1c(Nc2ccccc2C)sc(C(=O)c2ccccc2)c1N | inactive: -6.7%
20 | COC(=O)c1ccc(Cn2nnc3sc4c(c3c2=O)CCC(C)C4)cc1 (centres undefined) | inactive: -12.8%
21 | CCOc1ccccc1CNC(=O)CCn1ccc2cc(S(=O)(=O)N3CCC(C)CC3)ccc21 | inactive: -16.6%
22 | COc1ccc2c(CNCCc3cccs3)c(C(=O)O)n(Cc3ccccc3)c2c1 | inactive: -1.27%
23 | O=C(CCCN1C(=O)C(c2ccccc2)Oc2cccnc21)Nc1ccc(Br)cc1F (centres undefined) | inactive: -4.48%
24 | O=C(NC1CCCc2ccccc21)c1ccc2c(c1)sc1nc(-c3ccc(F)cc3)cn12 (centres undefined) | inactive: 1.14%

Row | Compound | activity change, negative = inhibition
25 | COc1ccc(-c2nc(SCC(=O)NCCc3ccc(OC)c(OC)c3)n[nH]2)cc1 | inactive: 8.18%
26 | CCOc1ccc(CCNC(=O)c2cc3c(=O)[nH]c4ccc(C)cc4c3s2)cc1OCC | inactive: -9.22%
27 | CC(=O)N(Cc1cccnc1)c1nc2c(C)c(C)ccc2s1 | inactive: -1.63%
28 | Cc1ccc(Cl)cc1NC(=O)C1CCC(CNS(=O)(=O)c2cccc3nsnc23)CC1 (centres undefined) | inactive: -8.42%
29 | CCc1ccc2c(c1)NC(c1cccs1)=NC(c1ccc(F)cc1)=N2 | inactive: -0.632%
30 | Cc1ccc(NC(=O)CCC(=O)N2Cc3ccccc3Oc3ncccc32)c(C)c1 | inactive: 1.41%
31 | Cc1ccc(C(C)C)c(OCC(O)CN2CCN(c3ccccc3F)CC2)c1 (centres undefined) | inactive: 3.99%
32 | Cc1cccc(NC(=O)CSc2nc(-c3ccccc3)cc(=O)[nH]2)c1C | inactive: 3.23%
33 | CCOc1ccc(CCNC(=O)CN2C(=O)COc3ccc(S(=O)(=O)N4CCCC4)cc32)cc1 | inactive: -12.1%
34 | COc1ccc(-n2nnnc2C2CCN(S(=O)(=O)c3ccc(NC(C)=O)cc3)CC2)cc1 | inactive: -12.5%
35 | Cc1cccc(-c2nc(C)c(CCNC(=O)C(=O)Nc3ccccc3C#N)s2)c1 | inactive: -3.84%
36 | COCCCNC(=O)c1ccc(-c2nc(CS(=O)(=O)c3ccc(C)cc3)c(C)o2)cc1 | inactive: 0%
37 | Cc1oc(-c2ccc(C(=O)NCc3cccc(F)c3)cc2)nc1COc1ccccc1 | inactive: -2.89%
38 | CCOC(=O)c1ccc(N2C(=O)c3n[nH]c(-c4ccco4)c3C2c2cccc(OC)c2)cc1 (centres undefined) | inactive: -16%
39 | COC(=O)c1ccc2c(=O)n(CCCCCC(=O)NCCc3ccc(Cl)cc3)c(=O)[nH]c2c1 | inactive: 0.34%
40 | CCn1c(C(=O)N2CCC(C(=O)NCCc3ccc(C)cc3)CC2)cc2sccc21 | inactive: -5.38%
41 | Cc1ccc(Cn2ccnc2SCC(=O)NCc2ccccc2Cl)cc1 | inactive: 3.15%
42 | N#Cc1c(C(F)(F)F)cc(-c2ccc(F)cc2)nc1SCC(=O)Nc1ccccc1 | inactive: -5.37%
43 | Cc1ccccc1NC(=O)CSc1nc2ccccc2c2nc(CCn3cncc3C)nn12 | inactive: -7.65%
44 | COc1ccc(NC(=O)CCc2c(C)nn(-c3ccc(N4CCCCC4)nn3)c2C)cc1Cl | inactive: 5.69%
45 | COc1ccccc1C(=O)Nc1cccc(C(=O)OCc2cc(=O)n3ccsc3n2)c1 | inactive: 5.09%
46 | Cc1ccc(CNC(=O)C(C)n2nc(C)n3c(cc4sccc43)c2=O)cc1 (centres undefined) | inactive: -8.72%
47 | CCOC(=O)C1CCCN(C(=O)c2ccc3c(c2)sc2nc(-c4ccc(CC)cc4)cn23)C1 (centres undefined) | inactive: -2.8%
48 | O=C(CCS(=O)(=O)c1ccc(Br)cc1)Nc1ccc(F)cc1F | inactive: -1.46%

Row | Compound | activity change, negative = inhibition
49 | Cc1ccc(-c2nc3ncccn3c2Nc2ccc3c(c2)OCCO3)cc1 | inactive: -16.1%
50 | CCc1ccc(CNc2ccc3c(c2)ncn3C(C)(C)C)cc1 | inactive: -9.19%
51 | Cc1cccc(NS(=O)(=O)c2ccc3c(c2)CC(C)N3C(=O)C2CCC2)c1C (centres undefined) | inactive: -20.5%
52 | COc1cccc2c1cc1c(=O)n(CC(=O)N3CCN(c4ccccc4)CC3)nc(C)n12 | inactive: 0.278%
53 | CCOc1ccc(N2CC(c3nc4ccccc4n3CCOc3ccccc3OC)CC2=O)cc1 (centres undefined) | inactive: 0.408%
54 | CCc1nc2ccc(C(=O)NCc3cc(OC)ccc3OC)cc2nc1CC | inactive: -3.67%
55 | CCOc1ccc(CCNC(=O)CS(=O)(=O)Cc2nc(-c3ccc(OC)cc3)oc2C)cc1 | inactive: 5.41%
56 | COc1ccc(Cn2c(=O)n(Cc3ccco3)c(=O)c3oc4ccccc4c32)cc1 | inactive: -15.7%
57 | Cc1cccc2sc(N(CCN(C)C)C(=O)c3ccc4c(c3)OCCO4)nc12 | inactive: -18%
58 | Cc1cc(OC(C)C(=O)Nc2cccc(-c3nc4ccccc4o3)c2)cc(C)c1Cl (centres undefined) | inactive: -2.24%
59 | Cc1ccc(Cn2c(C)c3cnn(CC(=O)NCc4ccccc4)c(=O)c3c2C)cc1 | inactive: -12.7%
60 | COc1ccc(-c2nc(CSCC(=O)N3CCN(c4cc(Cl)ccc4C)CC3)c(C)o2)cc1 | inactive: -0.872%
61 | COc1ccc(-c2nc(CS(=O)(=O)CC(=O)NCc3ccccc3Br)c(C)o2)cc1 | inactive: 0.879%
62 | O=C(NCCCN1CCCCCC1)c1ccc2c(c1)sc1nc(-c3ccccc3)cn12 | inactive: -4.56%
63 | Cc1ccc(CNC(=O)CCCn2c(=O)c3ccccc3n(CC(=O)Nc3ccc(C)cc3)c2=O)cc1 | inactive: 8.41%
64 | CCC(C(=O)Nc1ccc(C)c(C)c1)n1c(=O)c(C(F)(F)F)nc2ccccc21 (centres undefined) | inactive: 3.08%
65 | CCOc1ccc(NC(=O)CCc2c(C)nn(-c3ccc(N4CCCC4)nn3)c2C)cc1 | inactive: -5.99%
66 | CCOC(=O)c1c(NC(=O)COc2ccc(Cl)cc2C)sc2c1CCCCC2 | inactive: -11.6%
67 | Cc1ccc(CNC(=O)CS(=O)(=O)c2cccc3nsnc23)cc1 | inactive: -2.69%
68 | COc1cccc(NC(=O)Cn2c(=O)n(CCC(=O)NCCc3ccc(Cl)cc3)c(=O)c3ccccc32)c1 | inactive: 0.0691%
69 | COc1ccc(CCNC(=O)Cc2c(C)c3cc4c(C(C)(C)C)coc4c(C)c3oc2=O)cc1 | inactive: 2%
70 | COc1cc(-c2noc(-c3ccc(NCC4CCCO4)c([N+](=O)[O-])c3)n2)cc(OC)c1OC (centres undefined) | inactive: -9.03%
71 | Cc1ccc(CNC(=O)c2cc3c(=O)n(Cc4ccco4)ccc3nc2C)cc1 | inactive: -0.571%
72 | COc1ccc(NC(=O)CC2C(=O)N(c3ccc(OC)cc3)C(=O)N2CCC2=CCCCC2)cc1 (centres undefined) | inactive: -6.57%

Row | Compound | activity change, negative = inhibition
73 | Cc1ccc(C)c(Nc2cc(C(=O)NC3CCCC3)c3ccccc3n2)c1 | inactive: 9.52%
74 | COc1cc(NC(=O)CSc2nc3ncccc3o2)cc(OC)c1 | inactive: -2.67%
75 | COc1cc(NC(=O)CN2CCN(c3ccc(F)cc3)CC2)cc(OC)c1 | inactive: 3.69%
76 | Cc1ccc(NC(=O)CCc2c(C)nc3c(-c4ccc(F)cc4)c(C)nn3c2C)cc1F | inactive: -1.74%
77 | Cc1ccc2oc(-c3ccc(NC(=O)CCC(=O)O)cc3)nc2c1 | inactive: -14.1%
78 | CCn1cc2nc(SCC(=O)Nc3cc(OC)cc(OC)c3)n(Cc3ccc(Cl)cc3)c(=O)c2n1 | inactive: -0.979%
79 | O=C(/C=C/c1ccccc1Cl)N1CCC(c2nc3ccccc3o2)CC1 | inactive: -8.23%
80 | CCOc1ccc(NC(=O)c2sc3nc4n(c(=O)c3c2C)CCC4)cc1 | inactive: 1.41%
81 | COC(=O)N1CCCc2cc(S(=O)(=O)NCc3ccccc3)ccc21 | inactive: -19.5%
82 | Cc1cccc(C)c1NC(=O)c1ccc2c(c1)nnn2C1CCCC1 | inactive: -23.2%
83 | CCOc1cc(-c2ccc(OC(=O)c3ccccc3Cl)c(OC)c2)cc(=O)c2c(C)oc(C)c12 | inactive: -5.44%
84 | COc1ccc(-c2nn3c(=O)cc(CN4CCN(C(=O)/C=C/c5ccccc5)CC4)nc3s2)cc1 | inactive: -0.923%
85 | COc1ccc(C2CC(=O)Nc3c2c(=O)[nH]c2nc4ccccc4n32)cc1 (centres undefined) | inactive: 0.616%
86 | Cc1cc(C)cc(NC(=O)CSc2nc3c(c(=O)[nH]2)CN(Cc2ccc(F)cc2)CC3)c1 | inactive: 1.05%
87 | CCn1cc(C(=O)Nc2cccc(Cl)c2)c2cc(OC)c(OC)cc2c1=O | inactive: 0.622%
88 | CCCCN(CC)CCNC(=O)C1CCN(S(=O)(=O)c2cccc3nsnc23)CC1 | inactive: 0.657%
89 | CCNC(=O)c1ccc(NC(=O)N2CCCCc3ccccc32)cc1 | inactive: -11%
90 | Cc1ccccc1COC(=O)c1nn(-c2ccccc2)nc1N | inactive: 0.949%
91 | COc1ccccc1N1CCN(C(=O)Cn2c(=O)n3nc(-c4cccc(F)c4)nc3c3ccccc32)CC1 | inactive: -9.43%
92 | CCc1nn(CC(=O)N2CCN(c3ccc(OC)cc3)CC2)c(=O)c2cc3sccc3n12 | inactive: -3.09%
93 | CC(CCc1ccccc1)NC(=O)Cn1ncc2c3ccccc3n(Cc3ccccc3F)c2c1=O (centres undefined) | inactive: -0.279%
94 | COc1ccc(-c2cnc(C)o2)cc1S(=O)(=O)Nc1ccc(NC(C)=O)cc1 | inactive: 12.5%
